# Test results taken from patent publication US20240358672A1, “APPLICATION OF GENISTEIN AND ITS PHOSPHATE ESTER DERIVATIVE AND PHARMACEUTICAL COMPOSITION COMPRISING THE SAME” (National Taiwan University, priority 2023, published 2024).
# Test system: hiPSC-ECs
# Assay: TNF-α ELISA of hiPSC-EC culture medium
# Assay type: cell-based, human
# Details: 0.5 or 5 μM Δ^9-THC, 48 hours
compound,measurement,value
"CCCCCc1cc(O)c2c(c1)OC(C)(C)[C@@H]1CCC(C)=C[C@@H]21 [Δ^9-THC, Δ^9-tetrahydrocannabinol]",TNF-α concentration in the cell culture medium,increased
